The structures appear in SMILES notation.

The first experiment addresses ZIKV NS2B-G4SG4-NS3 serine protease (Zika virus, UniProt A0A024B7W1, R1467A/R1531G). The experiment is described as follows: ZIKV protease inhibition assay. The format is biochemical.
Conditions: not given
`O=C([N-]c1c[n+](C[C@H]2CC[C@H](NCC(F)(F)F)CC2)no1)Nc1cc(N2CCC(c3ccccc3)C2=O)cc(C(F)(F)F)c1` (stereo partly drawn) [Example 137, ((3-(2-Oxo-3-phenylpyrrolidin-1-yl)-5-(trifluoromethyl)phenyl)carbamoyl)(3-(((1R,4R)-4-((2,2,2-trifluoroethyl)amino)-cyclohexyl)methyl)-1,2,3-oxadiazol-3-ium-5-yl)amide] showed an IC50 of 100 to 1000 nM.
On to `NC[C@H]1CC[C@H]([n+]2cc([N-]C(=O)Nc3cc(NC(=O)Cc4ccccc4)cc(C(F)(F)F)c3)on2)CC1` [Example 93, (3-((1R,4R)-4-(Aminomethyl)cyclohexyl)-1,2,3-oxadiazol-3-ium-5-yl)((3-(2-phenyl-acetamido)-5-(trifluoromethyl)phenyl)-carbamoyl)amide], for which the IC50 was below 100 nM.
The compound `N[C@H]1CC[C@H](C[n+]2cc([N-]C(=O)Nc3cc(N4CC[C@H](c5ccccc5)C4=O)cc(C(F)(F)F)c3)on2)CC1` [Example 143, (3-(((1R,4R)-4-Aminocyclohexyl)methyl)-1,2,3-oxadiazol-3-ium-5-yl)((3-((R)-2-oxo-3-phenylpyrrolidin-1-yl)-5-(trifluoromethyl)-phenyl)carbamoyl)amide] gave an IC50 of 100 to 1000 nM.
Take `CN(C)[C@H]1CC[C@@H]([n+]2cc([N-]C(=O)Nc3cc(NC(=O)Cc4ccccc4)cc(C(F)(F)F)c3)on2)CC1` [Example 95, (3-((1S,4S)-4-(Dimethylamino)cyclohexyl)-1,2,3-oxadiazol-3-ium-5-yl)((3-(2-phenylacetamido)-5-(trifluoromethyl)phenyl)-carbamoyl)amide]: the IC50 is 100 to 1000 nM.
As for `Cc1cnn(C2COC2)c1-c1ccc(C[n+]2cc([N-]C(=O)Nc3ccnc(C(F)(F)F)c3)on2)cc1` [Example 239, (3-((4-(4-Methyl-2-(oxetan-3-yl)pyrazol-3-yl]phenyl)methyl)oxadiazol-3-ium-5-yl)-((2-(trifluoromethyl)pyridin-4-yl)carbamoyl)-azanide], the IC50 was below 100 nM.
`CN(C)C[C@H]1CC[C@H]([n+]2cc([N-]C(=O)Nc3cc(NC(=O)C(F)c4ccccc4F)cc(C(F)(F)F)c3)on2)CC1` (stereo partly drawn) [Example 194, (3-((1R,4R)-4-((Dimethylamino)methyl)-cyclohexyl)-1,2,3-oxadiazol-3-ium-5-yl)((3-(2-fluoro-2-(2-fluorophenyl)acetamido)-5-(trifluoromethyl)phenyl)carbamoyl)amide] showed an IC50 below 100 nM.
`CN(C)C[C@H]1CC[C@H]([n+]2cc([N-]C(=O)Nc3cc(NC(=O)Cc4c(F)cccc4F)cc(C(F)(F)F)c3)on2)CC1` [Example 199, ((3-(2-(2,6-Difluorophenyl)acetamido)-5-(trifluoromethyl)phenyl)carbamoyl)(3-((1R,4R)-4-((dimethylamino)methyl)cyclohexyl)-1,2,3-oxadiazol-3-ium-5-yl)amide] came in with an IC50 below 100 nM.
`CN(C)C[C@H]1CC[C@H]([n+]2cc([N-]C(=O)Nc3cc(NC(=O)C(C)(C)c4ccccc4)cc(C(F)(F)F)c3)on2)CC1` [Example 208, (3-((1R,4R)-4-((Dimethylamino)methyl)-cyclohexyl)-1,2,3-oxadiazol-3-ium-5-yl)((3-(2-methyl-2-phenylpropanamido)-5-(trifluoromethyl)phenyl)carbamoyl)amide] showed an IC50 of 100 to 1000 nM.
`Cc1ccccc1CC(=O)Nc1cc(NC(=O)[N-]c2c[n+]([C@H]3CC[C@H](C(=O)O)CC3)no2)cc(C(F)(F)F)c1` [Example 229, (3-((1R,4R)-4-Carboxycyclohexyl)-1,2,3-oxadiazol-3-ium-5-yl)((3-(2-(o-tolyl)acetamido)-5-(trifluoromethyl)phenyl)carbamoyl)amide] returned an IC50 of 100 to 1000 nM.
In the case of `O=C([N-]c1c[n+](C[C@H]2CC[C@H](c3cncnc3)CC2)no1)Nc1cccc(C(F)(F)F)c1` [Example 186, (3-(((1R,4R)-4-(Pyrimidin-5-yl)cyclohexyl)methyl)-1,2,3-oxadiazol-3-ium-5-yl)((3-(trifluoromethyl)phenyl)carbamoyl)amide], the IC50 lay in the range of 100 to 1000 nM.
As to `O=C([N-]c1c[n+](C[C@H]2CC[C@H](c3cncnc3)CC2)no1)Nc1ccnc(C(F)(F)F)c1` [Example 187, (3-(((1R,4R)-4-(Pyrimidin-5-yl)cyclohexyl)-methyl)-1,2,3-oxadiazol-3-ium-5-yl)((2-(trifluoromethyl)pyridin-4-yl)carbamoyl)amide], the IC50 fell in the range of 100 to 1000 nM.
In turn, `CN(C)C[C@H]1CC[C@@H]([n+]2cc([N-]C(=O)Nc3cc(NC(=O)Cc4ccccc4)cc(C(F)(F)F)c3)on2)CC1` [Example 61, (3-((1S,4S)- -4-((Dimethylamino)methyl)cyclohexyl)-1,2,3-oxadiazol-3-ium-5-yl)((3-(2-phenylacetamido)-5-(trifluoromethyl)phenyl)carbamoyl)amide] returned an IC50 below 100 nM.

Still in this experiment, the particulars now being: 1.25 nM enzyme, 10 µM Bz-Nle-KRR-AMC substrate, 25 °C; read-out: Zika - NS3 protease.
Regarding `CN(C)CC1CCC([n+]2cc([N-]C(=O)Nc3cc(NC(=O)Cc4ccccc4C(=O)O)cc(C(F)(F)F)c3)on2)CC1` [Example 159, ((3-(2-(2-Carboxyphenyl)acetamido)-5-(trifluoromethyl)phenyl)carbamoyl)(3-((1R,4R)-4-((dimethylamino)methyl)cyclohexyl)-1,2,3-oxadiazol-3-ium-5-yl)amide], the IC50 was below 100 nM.
On to `CN(C)C[C@H]1CC[C@H]([n+]2cc([N-]C(=O)Nc3cc(NC(=O)Cc4ccccc4Cl)cc(C(F)(F)F)c3)on2)CC1` [Example 168, ((3-(2-(2-Chlorophenyl)acetamido)-5-(trifluoromethyl)phenyl)carbamoyl)(3-((1R,4R)-4-((dimethylamino)methyl)cyclohexyl)-1,2,3-oxadiazol-3-ium-5-yl)amide], for which the IC50 is below 100 nM.
For the compound `CN(C)C[C@H]1CC[C@H]([n+]2cc([N-]C(=O)Nc3cc(NC(=O)C4CCCc5ccccc54)cc(C(F)(F)F)c3)on2)CC1` (stereo partly drawn) [Example 177, (3-((1R,4R)-4-((Dimethylamino)methyl)-cyclohexyl)-1,2,3-oxadiazol-3-ium-5-yl)((3-(1,2,3,4-tetrahydronaphthalene-1-carboxamido)-5-(trifluoromethyl)phenyl)carbamoyl)amide], the IC50 was in the range of 100 to 1000 nM.

The experiment is the same for the next values; noted with them: read-out: Zika - NS3 protease; 1.25 nM enzyme, 10 µM Bz-Nle-KRR-AMC substrate, 25 °C.
For the compound `COc1ncc(-c2ccc(C[n+]3cc([N-]C(=O)Nc4cc(NC(=O)Cc5ccc(Cl)cc5)cc(C(F)(F)F)c4)on3)cc2)c(C)n1` [Example 17], the IC50 fell in the range of 100 to 1000 nM.
On the same count and under the same terms, next, `O=C([N-]c1c[n+](Cc2ccccn2)no1)Nc1cc(NC(=O)C2CN(C3CC3)C2)cc(C(F)(F)F)c1` [Example 77]: 100 to 1000 nM; `COc1ncc(-c2ccc(C[n+]3cc([N-]C(=O)Nc4cc(NC(=O)c5ccccc5)cc(C(F)(F)F)c4)on3)cc2)c(C)n1` [Example 15]: below 100 nM; `O=C([N-]c1c[n+](Cc2ccccn2)no1)Nc1cc(NC(=O)[C@H]2C[C@](O)(c3ccccn3)C2)cc(C(F)(F)F)c1` [Example 69]: 100 to 1000 nM.
Still for that read-out and setting: the same measure for `Cc1cccc2c1OCC2C(=O)Nc1cc(NC(=O)[N-]c2c[n+](Cc3ccccn3)no2)cc(C(F)(F)F)c1` (stereo not drawn) [Example 67]: 1000 to 20000 nM.
Same read-out and setting: the same measure for `COc1ncc(-c2ccc(C[n+]3cc([N-]C(=O)Nc4cc(NC(=O)Cc5ccc(CN)cc5)cc(C(F)(F)F)c4)on3)cc2)c(C)n1` [Example 22]: below 100 nM.
